These results are taken from ChEMBL document CHEMBL4888484, “Replenishing the malaria drug discovery pipeline: Screening and hit evaluation of the MMV Hit Generation Library 1 (HGL1) against asexual blood stage Plasmodium falciparum ,using a nano luciferase reporter read-out” (2022).

In general, % Inhibition refers to the drop in the measured response relative to a control, in per cent.

Structures are written as SMILES. About 540 (0.36%) of roughly 150,000 compounds showed an effect of 50% or more. The list shows a part of the results.

This assay concerns Plasmodium falciparum. As to the kind of experiment: Primary screen in NF54 nanoGlo assay, in single point, at 2uM, 72h; a lower Z score goes with more inhibition. The assay is classed as functional, Erythrocyte. The note with it: timepoint 72 hour.
In the case of `Cc1ccc(NC(=O)COc2ccc([C@H]3Nc4ccccc4S(=O)(=O)N3Cc3ccccc3)cc2)cc1`, the “% Inhibition” value was determined as 35% and the Z score is listed as -3.98.

Regarding `COc1ccc(CN(Cc2ccco2)C(=O)c2ccccc2OC)cc1OS(=O)(=O)c1ccc(F)cc1`, the “% Inhibition” value is recorded as -12% and the Z score is given as 1.28.

As for `O=C(Cc1cccs1)N1CCN(C(=O)c2ccccc2)CC1`, the “% Inhibition” value is given as -1% and the Z score is 0.14.

Regarding `Cc1nn(-c2ncc(C(F)(F)F)cc2Cl)c(=O)n1-c1cccc(C(F)(F)F)c1`, the “% Inhibition” value is given as -1% and the Z score is 0.11.

On to `CC1(C)OC[C@H](CNC(=O)Nc2nncs2)O1`, for which the “% Inhibition” value was -32% and the Z score worked out at 3.71.

With `COc1ccc(N2CCC(C(=O)Nc3cccc(NC(C)=O)c3)CC2)nn1`, the “% Inhibition” value was -5% and the Z score turned out to be 0.63.

As to `CC(C)N1CCC[C@H](N2CCS(=O)(=O)CC2)C1=O`, the “% Inhibition” value came out at 10% and the Z score was -1.17.

As to `CCC(C)(C)C(=O)Nc1ccc(Cl)cn1`, the “% Inhibition” value was -2% and the Z score is 0.21.

Take `CC(C)(C)OC(=O)N1CCC2(CC(O)c3cc(OCc4ccccc4)ccc3O2)C1` (configuration not stated): the “% Inhibition” value is given as -8% and the Z score was found to be 1.05.

Take `Cc1oc(-c2ccccc2)c(C(=O)N[C@H]2CCS(=O)(=O)C2)c1C`: the “% Inhibition” value stood at 2% and the Z score was -0.23.

In the case of `Cc1ccc(CN2CCC(N3C(=O)C4CCCN4C3=O)C2=O)cc1` (configuration not stated), the “% Inhibition” value is reported as -10% and the Z score is reported as 1.32.

Take `CC(C)c1nnc(NC(=O)c2cccc(Nc3cnccn3)c2)s1`: the “% Inhibition” value was 11% and the Z score was -1.72.

Regarding `O=C(NCc1ccccc1Br)c1cncn1-c1cccc(-c2ccccc2C(F)(F)F)c1`, the “% Inhibition” value is recorded as -11% and the Z score was found to be 1.65.

With `C[C@H](O)c1nc2cc(NC(=O)CN3CCCCCC3)ccc2[nH]1`, the “% Inhibition” value is 12% and the Z score is -1.6.

Turning to `O=C([C@H]1CC12CCN(Cc1cccc3c1OCO3)CC2)N1CCN(C/C=C/c2ccccc2)CC1`, the “% Inhibition” value is listed as -10% and the Z score was 1.31.

As for `COCCc1ncc(-c2cc(C(=O)N3CCCCC3)c3ccc(C)c(C)c3n2)cn1`, the “% Inhibition” value turned out to be 5% and the Z score is listed as -0.64.

With `Cc1cc(S(=O)(=O)NC[C@@]2(C)CCC(=O)N2)c(C)o1`, the “% Inhibition” value is recorded as -8% and the Z score was 1.1.

As to `Cc1ccc(-n2nc(O[C@@H](C)C(=O)Nc3ccc(F)c(F)c3)ccc2=O)cc1C`, the “% Inhibition” value was -24% and the Z score turned out to be 3.78.

In the case of `Cc1cnc(C[C@H]2CCCN(C(=O)c3ccoc3)C2)n1CC1CC1`, the “% Inhibition” value was 4% and the Z score is -0.6.

For `COc1ccccc1CN1CC[C@H]2CC(=O)Nc3cc(C(C)C)ccc3OCC[C@H]2C1`, the “% Inhibition” value is listed as 11% and the Z score is reported as -1.68.

Turning to `CCC(C)(C)C#Cc1ccc(C(=O)NC[C@H](O)CO)nc1`, the “% Inhibition” value is -6% and the Z score amounted to 0.86.

For the compound `Cc1ccc(C(=O)N2CCc3cc(Cl)c(Cl)cc3[C@@H]2C)c(=O)[nH]1`, the “% Inhibition” value came to 0% and the Z score is on record as -0.04.

As to `Cc1ccc2c(c1)N(CC(=O)NCc1ccccc1Cl)C=NS2(=O)=O`, the “% Inhibition” value is -21% and the Z score worked out at 2.44.

In the case of `O=C(NCc1ccccc1)[C@@H]1COC2(CCN(C(=O)c3ccc4c(c3)OCO4)CC2)N1C(=O)c1ccco1`, the “% Inhibition” value is reported as -14% and the Z score was 1.21.

As for `CC1CCN(CC[C@@H]2CC[C@H](O)[C@@H](C(=O)Nc3ccccc3)O2)CC1`, the “% Inhibition” value is recorded as -11% and the Z score was determined as 1.68.

As for `Cc1nc(NC(=O)CS(=O)(=O)N(C)C)n(C)n1`, the “% Inhibition” value worked out at 4% and the Z score is -0.51.

On to `NC(=O)c1cccc(CN[C@H](c2ccc(Cl)cc2)C2CCCC2)c1`, for which the “% Inhibition” value is reported as -4% and the Z score is 0.58.

For `Cc1nn(C)c(C)c1CCc1nc(-c2ccco2)n[nH]1`, the “% Inhibition” value is 2% and the Z score is -0.44.

In the case of `CCS(=O)(=O)N(C)C1CCN(C(=O)[C@H](C)N(C)CC(F)(F)F)CC1`, the “% Inhibition” value is -2% and the Z score came out at 0.3.

In the case of `COc1cccc2c1CC[C@H](NCc1nc(C(F)(F)F)cs1)C2`, the “% Inhibition” value is on record as -17% and the Z score is given as 1.75.

`COc1ccc(Cl)cc1NC(=O)Cc1c(C)nc2nc(-c3ccccc3C)nn2c1C`: the “% Inhibition” value turned out to be 30% and the Z score is listed as -0.56.

`NC(=O)C[C@H](NCc1cccs1)C1CCCCC1`: the “% Inhibition” value was -14% and the Z score amounted to 1.56.

For the compound `C1CCC([C@@H]2CCCCCN2Cc2nnc3n2CCCC3)CC1`, the “% Inhibition” value is listed as 8% and the Z score is -1.37.

For the compound `NC(=C(C(=O)c1ccccc1)C(=O)c1ccccc1)c1nonc1N`, the “% Inhibition” value is reported as -7% and the Z score was 0.91.

`O=C(NC1CCCCCC1)c1cncc(C(=O)NC2CCCCCC2)c1`: the “% Inhibition” value is recorded as -5% and the Z score was determined as 0.55.

Consider `C[C@H]1COCCN1C(=O)c1nn(C)c(=O)c2ccccc12`, for which the “% Inhibition” value is -2% and the Z score came out at 0.35.

Take `O=C(CCc1ccco1)Nc1ccc(-c2nnc3n2CCCCCC3)cc1`: the “% Inhibition” value is on record as -24% and the Z score came out at 3.75.

Regarding `COc1ccc(-c2nn(-c3ccccc3C)cc2CN(C)Cc2cnn(C)c2)cc1F`, the “% Inhibition” value came out at 3% and the Z score is reported as -0.55.

On to `CCc1ccc(CNCC2CN(C(=O)OC(C)(C)C)C2)cc1`, for which the “% Inhibition” value was -1% and the Z score is given as 0.11.

Take `CCN(CC)S(=O)(=O)c1ccc2c(c1)ncn2CCC(=O)Nc1ccc(C)cc1`: the “% Inhibition” value is 0% and the Z score is listed as -0.02.

As to `Cc1ccsc1CN(C)c1nnnn1-c1ccccc1`, the “% Inhibition” value is listed as -13% and the Z score is given as 1.61.
